Some of these densities may be calculated back from excess volumes.
Experiment: xn = mol fraction of the nth substance listed
Details: 101.3 kPa

**Q.** With `c1c[nH]cn1` + CCCCCC[N+]1(C)CCCC1.O=S(=O)([N-]S(=O)(=O)C(F)(F)F)C(F)(F)F as the molecule, how does the mass density (323.09 K, x2 = 0.5) read?
**A.** 1279 kg/m3

**Q.** And the mass density (343.09 K, x2 = 0.5)?
**A.** 1262 kg/m3

**Q.** What about the mass density (353.13 K, x2 = 0.5) of the same molecule?
**A.** 1254 kg/m3

**Q.** For `c1c[nH]cn1` + CCCC[N+]1(C)CCCC1.O=S(=O)([N-]S(=O)(=O)C(F)(F)F)C(F)(F)F, which mass density (323.05 K, x2 = 0.5) is on record?
**A.** 1323 kg/m3

**Q.** And the mass density (333.08 K, x2 = 0.5)?
**A.** 1314 kg/m3

**Q.** What about the mass density (343.06 K, x2 = 0.5) of the same molecule?
**A.** 1305 kg/m3

**Q.** What about the mass density (353.1 K, x2 = 0.5) of the same molecule?
**A.** 1297 kg/m3

**Q.** Which mass density (303.05 K, x1 = 0.5) does the source give for `CCCC[P+](CCCC)(CCCC)CCCC.CS(=O)(=O)[O-]` + c1c[nH]cn1 here?
**A.** 1018 kg/m3

**Q.** And the mass density (323.15 K, x1 = 0.5)?
**A.** 1005 kg/m3

**Q.** And the mass density (333.05 K, x1 = 0.5)?
**A.** 999 kg/m3

**Q.** And the mass density (343.05 K, x1 = 0.5)?
**A.** 992 kg/m3

**Q.** For `c1c[nH]cn1` + CC(C)C[P+](C)(CC(C)C)CC(C)C.Cc1ccc(S(=O)(=O)[O-])cc1, which mass density (313.08 K, x2 = 0.5) is on record?
**A.** 1067 kg/m3

**Q.** What about the mass density (323.06 K, x2 = 0.5) of the same molecule?
**A.** 1061 kg/m3

**Q.** What about the mass density (333.12 K, x2 = 0.5) of the same molecule?
**A.** 1054 kg/m3

**Q.** And the mass density (343.12 K, x2 = 0.5)?
**A.** 1048 kg/m3

**Q.** What about the mass density (353.1 K, x2 = 0.5) of the same molecule?
**A.** 1042 kg/m3

Reference: a compilation of properties of binary mixtures (doi:10.1007/s10953-018-0732-1)
